From paper PMC5540273 (PLoS ONE, 2017)
For some of these results: What follows is the remainder of the data, with few or none of the strong results. The list shows a part of the results, in another mix than the full data.

Legend:
Conditions in all cases: concentration: 1 μM,replicates: in singlicate; n = 1
[1] = system: T1, LZK
T1 construct: gene MAP3K13

[2] = system: MAK
[3] = system: MAP3K15
[4] = system: MAP3K1
[5] = system: MAP3K2
[6] = system: MAP3K3
[7] = system: MAP3K4
[8] = system: MAP4K2
[9] = system: MAP4K3
[10] = system: MAP4K4
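Also: KINOMEscan kinase panel screen.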

SMILES | %Inh [1] | %Inh [2] | %Inh [3] | %Inh [4] | %Inh [5] | %Inh [6] | %Inh [7] | %Inh [8] | %Inh [9] | %Inh [10]
O=C(O)c1ccc(-c2nc(-c3ccc(F)cc3)c(-c3ccncc3)[nH]2)cc1 [SB-202620] | 0% | 11% | 11% | 16% | 33% | 12% | 0% | 0% | 24% | 10%
COc1ccc(C2=C(Nc3cccc(Cl)c3)C(=O)NC2=O)cc1 [SB-326892] | 0% | 16% | 0% | 17% | 22% | 12% | 23% | 10% | 0% | 2%
Cc1cc(C)cc(Oc2nccc(-c3c(-c4ccc(F)cc4)ncn3C3CCNCC3)n2)c1.O=C(O)C(F)(F)F.O=C(O)C(F)(F)F.O=C(O)C(F)(F)F [SB-284851] | 0% | 27% | 0% | 0% | 0% | 7% | 23% | 0% | 0% | 20%
Cc1ccc(C)c(Oc2nccc(-c3c(-c4ccc(F)cc4)ncn3C3CCNCC3)n2)c1.O=C(O)C(F)(F)F.O=C(O)C(F)(F)F.O=C(O)C(F)(F)F [SB-284852] | 0% | 0% | 0% | 0% | 0% | 16% | 17% | 0% | 0% | 100%
O=C1NC(=O)C(c2ccc(Cl)cc2)=C1Nc1cccc(C(=O)O)c1 [SB-360737] | 0% | 11% | 19% | 19% | 1% | 0% | 16% | 0% | 0% | 6%
O=C1NC(=O)C(c2ccccc2)=C1Nc1cc(Cl)c(O)c(Cl)c1 [SB-390530] | 42% | 30% | 13% | 21% | 6% | 19% | 10% | 0% | 0% | 5%
O=C1NC(=O)C(c2ccccc2Cl)=C1Nc1ccccc1 [SB-376715] | 4% | 31% | 0% | 11% | 9% | 0% | 21% | 4% | 0% | 20%
O=C1NC(=O)C(c2ccccc2)=C1Nc1ccc(Cl)c(C(=O)O)c1 [SB-390532] | 43% | 20% | 0% | 3% | 0% | 0% | 16% | 0% | 0% | 0%
O=C1NC(=O)C(c2ccc(Cl)cc2)=C1Nc1ccc(O)c(Cl)c1 [SB-405367] | 0% | 16% | 0% | 11% | 25% | 21% | 17% | 0% | 0% | 0%
O=C1NC(=O)C(c2ccc(Cl)cc2)=C1Nc1ccccc1 [SB-317661] | 0% | 0% | 5% | 0% | 30% | 0% | 0% | 0% | 0% | 0%
COc1cccc(C2=C(Nc3ccc(SC)cc3)C(=O)NC2=O)c1 [SB-331032] | 0% | 0% | 0% | 0% | 40% | 23% | 0% | 18% | 4% | 0%
CSc1ccc(NC2=C(c3cccc(Cl)c3)C(=O)NC2=O)cc1 [SB-341528] | 0% | 0% | 0% | 0% | 6% | 0% | 0% | 1% | 0% | 0%
O=C1NC(=O)C(c2ccc(Cl)cc2)=C1Nc1cccc(O)c1 [SB-333613] | 9% | 0% | 23% | 26% | 24% | 26% | 0% | 37% | 1% | 18%
O=C1NC(=O)C(c2ccccc2Cl)=C1Nc1cccc(C(=O)O)c1 [SB-390526] | 0% | 0% | 0% | 23% | 0% | 3% | 0% | 0% | 0% | 0%
O=C1NC(=O)c2c1c(-c1ccccc1)cc1[nH]c3ccc(O)cc3c21 | 26% | 6% | 84% | 28% | 57% | 90.8% | 59% | 35% | 53% | 98.9%
CS(=O)(=O)c1ccccc1-c1nc(-c2ccc(F)cc2)c(-c2ccncc2)[nH]1 [SB-213663] | 7% | 0% | 0% | 0% | 0% | 27% | 0% | 0% | 0% | 29%
